In the supplement of paper PMC11417369:
Some of the results follow.

Test system: PfAP2-HC AP2 domain (GST-tagged)
Assay: gcPBM binding intensity (ln(normalized median fluorescence intensity)); higher = stronger DNA binding
In short: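 After 1 h on an Agilent 4 × 180k array of primer-extended double-stranded 36-bp intergenic genomic probes and negative controls, bound GST-tagged P. falciparum DNA-binding domains were detected with Alexa488 anti-GST antibody and scanned at 488 nm. The domains had been expressed in E. coli, and binding took place in 1× PBS with 1% milk, 0.2 mg/ml BSA, 0.5% salmon testes DNA and 0.03% Triton X-100. Binding intensity is the highest Masliner-normalised natural-log median intensity across replicate spots of either probe orientation.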

Sequence | gcPBM binding intensity (ln)
AAAAATTAAATGTACACACACCTTAAACAATGTCAT [CACACA_site6958] | 9.98
AAATACTGATTTGGTTGTACATGTGCACTATATAAC [XGTACX_site3795] | 9.76
ATAAATATATTTATATGTACATATAATTTTACATAT [XGTACX_site5440] | 9.85
TATAATCTAACATAATGTACATGTATATGCACTTTA [XGTACX_site369] | 9.67
ATATATATATCTAATTGTACATATTTTATAAATAAG [XGTACX_site4840] | 9.46
AAAAAAAAAAAAAAAAAAAAAAAAATCACACATTGG [TGCATGCA_negctrl_site412] | 9.37
TTTTGGATGTATTATACATGCATATTATTATAATAT [TGCATGCA_site997] | 9.62
ATATATCTACAAATATGTACACACACACATATATAT [XGTACX_site1075] | 11.1
AAAAAAAAAAAATAAAGTACTAAATAATACATTATA [XGTACX_site6203] | 9.53
AGAAAAGAAATTAAATGTACACAACTATAACCAAAT [XGTACX_site8084] | 9.86
TGTACAACAATTTTTGCACACACCAAAACATAAAAT [CACACA_site1598] | 10.2
GAACAAAAATACTTATGTACACATTAGCAAGGAAAA [XGTACX_site5622] | 9.71
TGTTTCTTATTTTTTTCACACACTAATCATTTCAAA [CACACA_site8695] | 9.88
ATTATGTTATTATTTTGTACACATAAATAATACGTT [XGTACX_site816] | 9.84
TCATATGTGAAACACACACACACACCCAAAAAAACA [CACACA_site3247] | 10.6
AAAAAAAATATCCGACGTACTATTTTCGTAGAAATA [XGTACX_site6292] | 9.54
TATACGCATATATACACACACATATATATATATATA [CACACA_site3416] | 9.98
AAACAAAAAAGAAGCACACATATATATATATATATG [CACACA_site2456] | 9.81
ATCTGAAAAATTAATAGTACAATTAATAATTAAACC [XGTACX_site8523] | 9.67

Sequence | gcPBM binding intensity (ln)
TGTTAATTTCATTTTCTACACACCTATCCTTTTTTT [CACACA_site8157] | 10
ACAAATAAATATTCGCGTACTTATATAATATTACGA [XGTACX_site6428] | 9.66
AACAAACAAATAGTTTATTTTGATTTTTTTAAAAAT [CACACA_negctrl_site693] | 9.28
ATATTTATATTTGTATGTACTTAAGTTTGTATGTAT [XGTACX_site3608] | 9.73
TTTTTAATTCAAAAAATAATATATTATATTTCAAAT [CACACA_negctrl_site737] | 9.33
ATATATTAGGGCAAATTTTCTGACATTACATCAGTC [CACACA_negctrl_site1166] | 9.46
TATTTTTCTTTTTTCTGTACTCACACAAATAGAAGG [XGTACX_site7329] | 9.37
TTTTTACGTAAACAAAATAATTATATAATATTATTT [CACACA_negctrl_site1769] | 9.52
CGTAAATTTTTTAAAAGTACAAAAAGATACGAGAAA [XGTACX_site8722] | 9.51
TAAACAAATAAATAAACACACAATATATGTATATAT [CACACA_site3803] | 9.87
TGTGTTAAATGTAATAGTGAATAAATAATTTTAACA [TGCATGCA_negctrl_site161] | 9.6
AAAATGAATATAATGACGCACACTTAAAATTGTTAA [CACACA_site2509] | 9.78
TTTTTTAGAAAAAGTTGTACTTTTTTTTTTTTTTTT [XGTACX_site535] | 9.27
ATATATATAATATAGGTGCACTACTTATTTAAAAAA | 9.75
TAAAAATGTAGACACACACACATATATATATTTAAT [CACACA_site1528] | 10.7
AAATAATTAGCTATTTGTACATATATACATATTTAT [XGTACX_site4652] | 9.84
TTAATAACAAAATAAACACACATATATAAATCCACA [CACACA_site1590] | 10.1
ACTACCTATATTTAAGCATGCAAAAAATAAAAATAT [TGCATGCA_site238] | 9.67
AATATTATTATTATTACACACACAATTATATTTACC [CACACA_site8061] | 10.2

Sequence | gcPBM binding intensity (ln)
ATATTTTAAATGTTATGTACACATTTGTTGTTTACA [XGTACX_site7353] | 9.69
ATTTTTTTTTTTATTTTCTTTGAGATTATCTTAATT [CACACA_negctrl_site1209] | 9.54
TTAATTTGTTCTTACACACACATATATATATATTTA [CACACA_site1185] | 10.1
TATATATATACATAATGTACATTTTATAAATTTACA [XGTACX_site5283] | 9.61
AAAAAAAAAAAAAAAATACACACGTGAATGTATTGT [CACACA_site1320] | 9.86
AAATAACACATATATACACACATATAAATATAATAT [CACACA_site2692] | 10.3
ATAGGACCTATGTGCCCATGGGTACATTAAAAAAAA [CACACA_negctrl_site1465] | 9.47
AAAAAACTTATAATCACACATATGATTAAATATTAA [CACACA_site4956] | 9.66
TTGAATGTAGTTAAATGTACATGTAATATATAAAAA [XGTACX_site1250] | 9.73
AATTATTTTTTGTATGAACACACAACTTAATTATGA [CACACA_site8774] | 9.78
TTTGTTTTAAATCGAAGTACACATAATTATATTTTA [XGTACX_site1541] | 9.46
ATACAACATATATATACACACATATAATAATAATAA [CACACA_site3367] | 10.3
AAACCAATAAAAAACTGTACAAAAATTATATGAGAT [XGTACX_site1269] | 10.1
GAATAAAAAATATATGTGCACATATAAACTTAAAAT [GTGCAC_site9554] | 10.1
TAATATAAAGGAAAAGAAAAGAAAAGAATATACAAT [CACACA_negctrl_site1369] | 9.69
AATAAATTATTTATTGCATGTAATATGAATATTTTT [TGCATGCA_site798] | 9.51
TAATGTATGAAATAAACACACAAGTAAGTACATAAA [CACACA_site2451] | 9.95
ATATATTTTATTCCTATATATATATATATATATATA [GTGCAC_negctrl_site556] | 9.7
